About 60 (0.1%) of roughly 46,000 compounds were called active. About 3% were inconclusive and are not listed. Calls follow the shape of the dose curve; as a rule, active = well fitted inhibition curve with a large enough effect; inconclusive = small, poorly fitted or top-dose-only effect; inactive = no such curve, though single readings can be large or run the other way. Some of the results follow.
Assay: Primary qHTS assay for Inhibitors of ovarian cancer metastasis using an organotypic tumor microenvironment (TME) model. Also: nearly all actives have a fitted effect of over 65% in size.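 As to activity change, negative = inhibition: plate controls were DMSO wells for no effect and tomatine positive control wells for full effect.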
Settings: SKOV3ip1-GFP adhesion/invasion on 3D omental model, fluorescence; series mostly up to 45.8 µM; activity change, negative = inhibition: at the top concentration
Procedure, shortened: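 Adhesion/invasion was scored as fixed GFP-labeled SKOV3ip1 cell counts (488/509 nm), normalized to DMSO and tomatine controls. Cancer cells in serum-free medium, with four compound doses (0.36-46 umol/L), sat 2 hr at RT then 16 hr at 37 C on a 48 hr fibroblast/mesothelial/ECM culture.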

Activity change, negative = inhibition, inactive:
Cn1ccc2cc(S(=O)(=O)N3CCN(C(=O)Nc4cccc(F)c4)CC3)ccc21 -3.06%
COc1ccc(NC(=O)C(c2ccc(OC)cc2)N(C)C(=O)Cc2cccs2)cc1 (stereo not given) 4.04%
Cc1ccccc1C(=O)Nc1cccc(-c2nc3cccnc3s2)c1 -16.8%
COc1ccc(C(CNC(=O)COc2cc(C)c(Cl)c(C)c2)N2CCCCC2)cc1 (stereo not given) -21.9%
CN(C)CCc1c[nH]c2ccc(Cn3cncn3)cc12 13.5%
CCCN(CCC)C(=O)c1c[nH]c2ccc(S(=O)(=O)N(C)c3ccc(Cl)cc3)cc2c1=O -2.98%
COc1cccc(CNC(=O)CCc2c(C)c3cc4c(C)coc4cc3oc2=O)c1 -5.63%
O=C(CSc1nc(=O)n(Cc2ccncc2)c2c1CCC2)Nc1ccccc1 32%
COc1ccc(Cn2ccc3nc(C)c(C(=O)Nc4ccc(OC)c(OC)c4)cc3c2=O)cc1 80.9%
CCCC(=O)N(c1ccc2oc3c(c2c1)CCCC3)S(=O)(=O)c1ccc(CC)cc1 3.64%
O=c1c(S(=O)(=O)c2ccccc2)cn(Cc2ccc(F)cc2)c2cc(N3CCCC3)c(F)cc12 -14.5%
COc1cccc(CNC(=O)C2CCC(CNS(=O)(=O)c3cccs3)CC2)c1 (stereo not given) 4.9%
COc1ccc(C=Cc2cc(OC)c(OC)c(OC)c2)cc1NC(=O)[C@H](N)CO 29.1%
COc1ccc(NCc2nc3ccccc3n2CCOc2ccccc2C)cc1 0.649%
COc1cccc(NC(=O)c2sc(-n3nc(C)c(Cc4ccccc4Cl)c3C)nc2C)c1 15.8%
COc1ccc(OC)c(-n2c(=O)[nH]c3cc(C(=O)NCCc4ccc(OC)c(OC)c4)ccc3c2=O)c1 -5.88%
Cc1ccccc1NC(=O)c1ccc(NC(=O)N2CCSc3ncccc32)cc1 32.6%
COCCn1c(C)cc(O)c(C(c2ccccc2)N2CCN(c3ccc(F)cc3)CC2)c1=O (stereo not given) 7.77%
Cc1ccc(CNS(=O)(=O)c2ccc(F)c(C(=O)Nc3ccc(C)c(F)c3)c2)cc1 -23.6%
Cc1ccc(N(C)C(=O)Cn2nc(Cc3ccncc3)c3ccccc3c2=O)cc1C 2.43%
O=C(NCCc1ccc(Cl)cc1)c1ccc(CS(=O)(=O)Cc2ccc(F)cc2)o1 -6.39%
O=C(Nc1ccc(F)cc1)c1ccc(-n2cnc3cccnc32)cc1 -2.33%
O=C(NCCS(=O)(=O)N1CCN(c2ccccc2F)CC1)c1cc(=O)c2ccccc2o1 -23.8%
COc1cccc(COC(=O)c2nn(-c3ccccc3)nc2N)c1 -8.24%
CCN(CC)c1ccc(NC(=O)CCS(=O)(=O)c2cccc3nsnc23)c(C)c1 0.0448%
CCOC(=O)c1[nH]c(C)c(CCC(=O)Nc2cc(Cl)ccc2C)c1C -2.2%
Cc1ccc(CNC(=O)C2CCN(c3nn4cc(-c5ccc(F)cc5)nc4s3)CC2)cc1 9.87%
CCOc1ccc(-c2nc(Cn3c(=O)cc(-c4ccccc4)c4c(C)nn(C)c43)c(C)o2)cc1OC -2.96%
COc1cc(OC)c(NC(=O)C(C)n2c(=O)cc(-c3ccccc3)c3c(C)nn(C)c32)cc1Cl (stereo not given) -2.95%
Cc1csc2nc(COC(=O)c3ccccc3NC(=O)c3ccccc3Cl)cc(=O)n12 -6.28%
CNC(=O)C1CCC(Cn2c(=O)c3sccc3n(Cc3ccccc3)c2=O)CC1 (stereo not given) 4.14%
COc1ccccc1CCNC(=O)c1cc2c(=O)n3cccc(C)c3nc2n1C -4.1%
Cc1cn2c(=O)cc(COC(=O)c3cccc(NC(=O)C(C)Oc4ccccc4)c3)nc2s1 (stereo not given) 0.824%
CCOc1ccccc1NC(=O)c1c(NC(=O)C(C)Oc2cccc(Cl)c2)sc2c1CCCCC2 (stereo not given) 0.168%
Cc1cc(S(=O)(=O)Nc2cc3c(cc2C)n(C)c(=O)c(=O)n3C)ccc1F 4.7%
CCSC1=NC2(CCN(C(=O)NC3CCCCC3)CC2)N=C1c1ccc(C)cc1 1.15%
COc1cccc(OCc2nc3ccccc3n2Cc2ccccc2)c1 -15.2%
COc1cccc(CNC(=O)C(=O)NCC(c2cccs2)S(=O)(=O)c2cccs2)c1 (stereo not given) 11%
CCOc1ccc(CC(=O)Nc2c(C(=O)c3ccc(Cl)cc3)oc3ccccc23)cc1OCC -4.95%
Cc1cccc(S(=O)(=O)c2cn(Cc3ccccc3)c3cc(N4CCC(C)CC4)c(F)cc3c2=O)c1 -4.04%
CCc1ccc(NC(=O)CN2C(=O)C3(SCC(=O)N3c3ccccc3)c3ccccc32)cc1 (stereo not given) -3.7%
Cc1ccc(Nc2nc(C)cc(C)n2)c(C(=O)O)c1 -10.7%
COc1ccc(NC(=O)c2sc3nc(C)c(C(=O)Nc4ccc(C)cc4C)c(-c4ccc(C)o4)c3c2N)cc1 3.09%
COc1ccc(NC(=O)Cn2nc(-c3ccncc3)ccc2=O)cc1Cl 7.11%
Cc1ccc(Cl)cc1NC(=O)CSC1=Nc2ccccc2C2=NC(Cc3ccccc3)C(=O)N12 (stereo not given) -6.45%
CC1(C)CC(=O)c2cc(-c3nc(-c4ccc(Cl)cc4)cs3)c(=O)n(-c3ccc(Cl)cc3)c2C1 -21.9%
COc1ccc(NC(=O)CSc2nc3ccccc3n2CC(=O)N(C)c2ccc(F)cc2)cc1 -6.47%
Cc1ccc(NC(=O)/C(C#N)=C/c2ccc(C)o2)cc1 -5.12%
COc1ccc(CCNc2ncnc3c2cnn3-c2cccc(Cl)c2)cc1 -1.32%
Cc1cc(C)n(CCc2nc3c4ccccc4nc(N4CCN(c5ccccc5F)CC4)n3n2)n1 7.32%
CCOc1ccc(NC(=O)c2cn(C)c(=O)c3cc(OC)c(OC)cc23)cc1 -5.6%
CCOC(=O)C1CCC(CN(Cc2ccc(Cl)cc2)S(=O)(=O)c2ccc(Br)cc2)CC1 (stereo not given) 7.17%
CCCN(c1ccccc1CC)S(=O)(=O)c1ccc2c(c1)CC(C)N2C(=O)C1CC1 (stereo not given) -5.03%
O=S(=O)(c1cccc(F)c1)N1CCC(c2nc3ccccc3s2)CC1 0.406%
Cc1ccc(NC(=O)c2oc3ccc(S(=O)(=O)N(C)C4CCCCC4)cc3c2C)cc1Cl -1.91%
COc1ccc(-c2nc(CSCC(=O)N3CCN(c4ccc(OC)cc4)CC3)c(C)o2)cc1 16.6%
COCCNC(=O)CCCN1C(=O)c2ccccc2Sc2ncccc21 8.25%
Cc1nnc(SCC(=O)Nc2ccc(Br)cc2)[nH]c1=O -12.3%
COc1cccc(-c2nc(CSCC(=O)NCCc3ccc(Cl)cc3)c(C)o2)c1 0.998%
CC(=O)N1CCc2cc(S(=O)(=O)NC(CC(C)C)C(=O)NCc3ccccc3)ccc21 (stereo not given) 1.7%
CCCCN(CCCC)CC(O)Cn1cc(/C=C/C(=O)c2ccccc2)c2ccccc21 (stereo not given) -4.06%
CCOc1ccc(NC(=O)C(NC(=O)C2CCC(C)CC2)C(C)C)cc1 (stereo not given) -1.11%
C[C@](Cc1c[nH]c2ccccc12)(NC(=O)OC1C2CC3CC(C2)CC1C3)C(=O)NC[C@H](NC(=O)CCC(=O)O)c1ccccc1 (stereo not given in full) 1.99%
CCOC(=O)c1cc(-c2ccccc2)n(CC(=O)N(C)c2ccc(OC)cc2)c1C -9.2%
COc1ccc(C)cc1Nc1nc(-c2cccc(Cl)c2)c2c(n1)-c1ccccc1OC2 -4.93%
Cc1ccc(-c2nc(N3CCN(c4ccccc4Cl)CC3)c3ccccc3n2)cc1 6.27%
CCCCC(CC)CNC(=O)CCCn1c(=O)[nH]c2ccsc2c1=O (stereo not given) 0.923%
CCN1CCN(c2c(S(=O)(=O)c3ccc(C)c(C)c3)cnc3cc(OC)c(OC)cc23)CC1 -4.79%
CCN(CC)C(=O)c1sc2c(c1C)c(=O)n(-c1ccccc1)c(=O)n2CC(=O)Nc1ccc(C)cc1C 1.97%

outcome, inactive:
COc1cccc(N2CCN(C(=O)CCn3nc(C)c(S(=O)(=O)N4CCCC4)c3C)CC2)c1
Cc1ccc(OCc2cc(=O)n3c4c(sc3n2)CCCC4)c(C)c1
CC1CCN(S(=O)(=O)c2ccc3c(c2)N(CC(=O)NCc2ccccc2Cl)C(=O)CO3)CC1
COC(=O)c1c(SC)nc2ccccc2c1OCc1cccc(C)c1
CCC(CC)C(=O)Nc1cccc(-c2nc3cccnc3s2)c1
COc1ccc(C(=O)NCC(c2cccnc2)N2CCc3ccccc3C2)cc1 (stereo not given)
CCc1ccc(NC(=O)N2CC=C(c3c[nH]c4ccccc34)CC2)cc1
Cc1cc(C)c2c(n1)nn1c(C)c(CCC(=O)Nc3ccc(C)c(Cl)c3)c(C)nc21
COc1ccc(-n2nc3cc(C)c(NC(=O)COc4cccc(C)c4)cc3n2)cc1
CC1=C(C(=O)Nc2ccc(Cl)cc2)C(c2cccs2)n2nc(SCc3cccc(Cl)c3)nc2N1 (stereo not given)
CCn1c(Oc2ccc(F)cc2F)nc2c1c(=O)n(C)c(=O)n2C
COc1ccc(OCCCCn2c(C3CC(=O)N(c4cccc(Cl)c4)C3)nc3ccccc32)cc1 (stereo not given)
Cc1ccc(Cn2ccnc2SCC(=O)NCc2ccc(F)cc2)cc1
CC(C)CCNC(=O)c1ccc2c(c1)NC(=O)C(CS(=O)(=O)Cc1cccc(Br)c1)N2 (stereo not given)
C#CC(C)(CC)NC(=O)c1cnn2c(C(F)F)cc(-c3ccccc3OC)nc12 (stereo not given)
CCS(=O)(=O)N1CCc2cc(C(=O)NCCc3ccccc3)ccc21
CCCN1CCN(CCNC(=O)Nc2ccc(OC)c(OC)c2)CC1
CN1C(=O)C2(SCC(=O)N2c2cccc(C(F)(F)F)c2)c2ccccc21 (stereo not given)
CCOC(=O)C1CCN(CC(=O)N2CCCc3c2c(=O)oc2ccc(OCc4ccccc4)cc32)CC1
CCN(CCCNC(=O)c1cc2cc3ccc(C)cc3nc2s1)c1ccccc1
CCS(=O)(=O)N1CC(=O)N(c2cccc(Cl)c2C)C(C)(C(=O)NC2CCCCC2)C1 (stereo not given)
COc1cccc2c1cc1c(=O)n(CC(=O)NC3CC3)nc(C)n12
O=c1c(=O)n(-c2cccc(Cl)c2)ccn1Cc1cccc(F)c1
COc1cc(-c2nc(Cn3nnc(C(=O)Nc4cc(C)cc(C)c4)c3C)c(C)o2)cc(OC)c1OC
Cc1cccc(-n2c(=O)c3c4c(sc3n3cnnc23)CCCC4)c1
Cc1cc(=O)n(Cc2cccc(Cl)c2)c2c1c(C)nn2-c1ccccc1

— PubChem BioAssay AID1963576 (National Center for Advancing Translational Sciences (NCATS), 2024)
